Data: patent US6841566B2, “Viral polymerase inhibitors” (Boehringer Ingelheim, Ltd., priority 2001, dated 2005)

Target: hepatitis C virus RNA dependant polymerase (NS5B) (Hepatitis C virus genotype 1b, UniProt P26663)
Experiment: Inhibition of NS5B RNA dependent RNA polymerase activity (SPA, oligo-U/polyA)
Experimental: The compounds of the invention were tested for inhibitory activity against the hepatitis C virus RNA dependant polymerase (NS5B), according to the following assay:
The substrates are: • a 12 nucleotide RNA oligo-uridylate (or oligo-uridine-monophosphate) (oligo-U) primer modified with biotin at the free 5′C position; • a complementary poly-adenylate (or adenosine monophosphate) (polyA) template of heterogeneous length (1000-10000 nucleotides); and UTP-[5,6 ^3H].
Polymerase activity is measured as the incorporation of UMP-[5,6 ^3H] into the chain elongated from the oligo-U primer. The ^3H-labelled reaction product is captured by SPA-beads coated with streptavidin and quantified on the TopCount.
The enzyme can be stored at −20° C. in storage buffer (see below).
The biotinylated oligo-U12 primer, the Poly(A) template, and the UTP-[5,6 ^3H] were dissolved in water. The solutions can be stored at −80° C.
Just prior to assay, test compounds of the invention were dissolved in assay buffer containing 15% DMSO.
Just prior to assay, the substrates were mixed in assay buffer to the following concentrations:
Just prior to assay, the RNA polymerase (NS5B) cocktail was prepared in assay buffer to the following specifications:
The assay reaction was performed in a Microfluor™ white “U” bottom plate (Dynatech™ #7105), by successively adding: • 20 μL of test compound cocktail; • 20 μL of substrate cocktail; and • 20 μL of enzyme cocktail (final [NS5B] in assay=10 nM; final [n-dodecyl maltoside] in assay=0.33%; final DMSO in assay=5%).
The reaction was incubated at room temperature for 1.5 hours. STOP solution (20 μL; 0.5 M EDTA, 150 ng/μl tRNA) was added, followed by 30 μl streptavidin coated PVT beads (8 mg/ml in 20 mM Tris-HCl, pH 7.5, 25 mM KCl, 0.025% NaN3). The plate was then shaken for 30 minutes. A solution of CsCl was added (70 μL, 5 M), to bring the CsCl concentration to 1.95 M. The mixture was then allowed to stand for 1 hour. The beads were then counted on a Hewlett Packard TopCount™ instrument using the following protocol: • Data mode: counts per minute • Scintillator: liq/plast • Energy range: low • Efficiency mode: normal • Region: 0-50 • Count delay: 5 minutes • Count time: 1 minute • Expected results: 6000 cpm/well • 200 cpm/well no enzyme control.
Based on the results at ten different concentrations of test compound, standard concentration-% inhibition curves were plotted and analysed to determine IC50's for the compounds of the invention. For some compounds, the IC50 was estimated from two points.

SMILES	IC50
Cc1cc(=O)oc2cc(NC(=O)C3(NC(=O)c4ccc5c(c4)nc(-c4ccoc4)n5C4CCCCC4)CCCC3)ccc12 [compound 1082]	500 to 5000 nM
C/C(=C\c1ccc(NC(=O)C2(NC(=O)c3ccc4c(c3)nc(-c3ccoc3)n4C3CCCCC3)CCCC2)cc1)C(=O)O [compound 1083]	< 500 nM
CCn1c(C(=O)O)cc2cc(NC(=O)C3(NC(=O)c4ccc5c(c4)nc(-c4ccoc4)n5C4CCCCC4)CCCC3)ccc21 [compound 1085]	< 500 nM
C#CCn1c(C(=O)O)cc2cc(NC(=O)C3(NC(=O)c4ccc5c(c4)nc(-c4ccoc4)n5C4CCCCC4)CCCC3)ccc21 [compound 1086]	< 500 nM
C[C@@H](NC(=O)c1ccc2c(c1)nc(-c1ccoc1)n2C1CCCCC1)C(=O)Nc1ccc2c(c1)cc(C(=O)O)n2C [compound 1087]	< 500 nM
Cc1cc(NC(=O)C2(NC(=O)c3ccc4c(c3)nc(-c3ccoc3)n4C3CCCCC3)CCCC2)ccc1/C=C/C(=O)O [compound 1088]	< 500 nM
CC(C)(C)OC(=O)N1CCC(NC(=O)c2ccc3c(c2)nc(-c2ccoc2)n3C2CCCCC2)(C(=O)Nc2ccc(/C=C/C(=O)O)cc2)CC1 [compound 1089]	< 500 nM
O=C(NC1(C(=O)Nc2ccc(-c3nc(C(=O)O)cs3)cc2)CCCC1)c1ccc2c(c1)nc(-c1ccoc1)n2C1CCCCC1 [compound 1090]	< 500 nM
Cc1nc(C(=O)O)sc1-c1ccc(NC(=O)C2(NC(=O)c3ccc4c(c3)nc(-c3ccoc3)n4C3CCCCC3)CCCC2)cc1 [compound 1091]	500 to 5000 nM
CC(NC(=O)c1ccc2c(c1)nc(-c1ccoc1)n2C1CCCCC1)C(=O)NC(C)C(=O)Nc1ccc(CCCC(=O)O)cc1 (stereo not drawn) [compound 1092]	5000 to 25000 nM
CC(C)(NC(=O)c1ccc2c(c1)nc(-c1ccoc1)n2C1CCCCC1)C(=O)Nc1ccc(/C=C/C(=O)O)cc1 [compound 1093]	< 500 nM
O=C(O)/C=C/c1ccc(NC(=O)C2(NC(=O)c3ccc4c(c3)nc(-c3ccoc3)n4C3CCCCC3)CCC2)cc1 [compound 1094]	< 500 nM
C[C@@H](NC(=O)c1ccc2c(c1)nc(-c1ccoc1)n2C1CCCCC1)C(=O)Nc1ccc2oc(C(=O)O)cc2c1 [compound 1096]	< 500 nM
C[C@@H](NC(=O)c1ccc2c(c1)nc(-c1ccoc1)n2C1CCCCC1)C(=O)Nc1ccc2[nH]c(C(=O)O)cc2c1 [compound 1097]	< 500 nM
O=C(NC1(C(=O)Nc2ccc3[nH]c(C(=O)O)cc3c2)CCCC1)c1ccc2c(c1)nc(-c1ccoc1)n2C1CCCCC1 [compound 1098]	< 500 nM
Cc1c(C(=O)O)sc2ccc(NC(=O)C3(NC(=O)c4ccc5c(c4)nc(-c4ccoc4)n5C4CCCCC4)CCCC3)cc12 [compound 1099]	< 500 nM
O=C(O)/C=C/c1ccc(NC(=O)C2(NC(=O)c3ccc4c(c3)nc(-c3ccoc3)n4C3CCCCC3)CCNCC2)cc1 [compound 1100]	< 500 nM
Cn1c(C(=O)O)cc2cc(NC(=O)C3(NC(=O)c4ccc5c(c4)nc(-c4ccoc4)n5C4CCCCC4)CCNCC3)ccc21 [compound 1101]	< 500 nM
CN1CCC(NC(=O)c2ccc3c(c2)nc(-c2ccoc2)n3C2CCCCC2)(C(=O)Nc2ccc3c(c2)cc(C(=O)O)n3C)CC1 [compound 1102]	< 500 nM
CC(C)(NC(=O)c1ccc2c(c1)nc(-c1ccoc1)n2C1CCCCC1)C(=O)Nc1ccc(-c2csc(C(=O)O)n2)cc1 [compound 1103]	< 500 nM
Cn1c(C(=O)O)cc2cc(NC(=O)C3(NC(=O)c4ccc5c(c4)nc(-c4ccoc4)n5C4CCCCC4)CCCNC3)ccc21 (stereo not drawn) [compound 1104]	500 to 5000 nM
CCN1CCC(NC(=O)c2ccc3c(c2)nc(-c2ccoc2)n3C2CCCCC2)(C(=O)Nc2ccc(-c3nc(C(=O)O)cs3)cc2)CC1 [compound 1108]	< 500 nM
CCN1CCC(NC(=O)c2ccc3c(c2)nc(-c2ccoc2)n3C2CCCCC2)(C(=O)Nc2ccc(-c3nc(C(N)=O)cs3)cc2)CC1 [compound 1109]	< 500 nM
O=C(NC1(C(=O)Nc2ccc3[nH]c(C(=O)O)c(I)c3c2)CCNCC1)c1ccc2c(c1)nc(-c1ccoc1)n2C1CCCCC1 [compound 1110]	< 500 nM
Nc1ncc(-c2ccc(NC(=O)C3(NC(=O)c4ccc5c(c4)nc(-c4ccoc4)n5C4CCCCC4)CCCC3)cc2)cn1 [compound 1111]	500 to 5000 nM
O=C(O)/C=C/c1ccc(NC(=O)C2(NC(=O)c3ccc4c(c3)nc(-c3ccsc3)n4C3CCCCC3)CCCC2)cc1 [compound 2001]	< 500 nM

SMILES	IC50
C[C@@H](NC(=O)c1ccc2c(c1)nc(-c1ccccn1)n2C1CCCCC1)C(=O)Nc1ccc(/C=C/C(=O)O)cc1 [compound 2002]	< 500 nM
C[C@@H](NC(=O)c1ccc2c(c1)nc(-c1ccccc1)n2C1CCCCC1)C(=O)Nc1ccc(/C=C/C(=O)O)cc1 [compound 2003]	500 to 5000 nM
C[C@@H](NC(=O)c1ccc2c(c1)nc(-c1ccc[nH]1)n2C1CCCCC1)C(=O)Nc1ccc(/C=C/C(=O)O)cc1 [compound 2004]	< 500 nM
O=C(O)/C=C/c1ccc(NC(=O)C2(NC(=O)c3ccc4c(c3)nc(-c3ccccn3)n4C3CCCCC3)CCCC2)cc1 [compound 2005]	< 500 nM
O=C(O)/C=C/c1ccc(NC(=O)C2(NC(=O)c3ccc4c(c3)nc(-c3ccccc3)n4C3CCCCC3)CCCC2)cc1 [compound 2006]	500 to 5000 nM
O=C(O)/C=C/c1ccc(NC(=O)C2(NC(=O)c3ccc4c(c3)nc(-c3ccc[nH]3)n4C3CCCCC3)CCCC2)cc1 [compound 2007]	< 500 nM
Cn1cccc1-c1nc2cc(C(=O)NC3(C(=O)Nc4ccc(/C=C/C(=O)O)cc4)CCCC3)ccc2n1C1CCCC1 [compound 2008]	500 to 5000 nM
O=C(O)/C=C/c1ccc(NC(=O)C2(NC(=O)c3ccc4c(c3)nc(-c3ccco3)n4C3CCCC3)CCCC2)cc1 [compound 2009]	500 to 5000 nM
O=C(O)/C=C/c1ccc(NC(=O)C2(NC(=O)c3ccc4c(c3)nc(-c3ccccc3)n4C3CCCC3)CCCC2)cc1 [compound 2010]	500 to 5000 nM
O=C(O)/C=C/c1ccc(NC(=O)C2(NC(=O)c3ccc4c(c3)nc(-c3cccs3)n4C3CCCC3)CCCC2)cc1 [compound 2011]	500 to 5000 nM
O=C(O)/C=C/c1ccc(NC(=O)C2(NC(=O)c3ccc4c(c3)nc(-c3ccccn3)n4C3CCCC3)CCCC2)cc1 [compound 2012]	500 to 5000 nM
O=C(O)/C=C/c1ccc(NC(=O)C2(NC(=O)c3ccc4c(c3)nc(-c3ccoc3)n4C3CCCC3)CCCC2)cc1 [compound 2013]	< 500 nM
O=C(O)/C=C/c1ccc(NC(=O)C2(NC(=O)c3ccc4c(c3)nc(-c3ccc[nH]3)n4C3CCCC3)CCCC2)cc1 [compound 2014]	500 to 5000 nM
O=C(O)/C=C/c1ccc(NC(=O)C2(NC(=O)c3ccc4c(c3)nc(-c3cccc5c3OCO5)n4C3CCCC3)CCCC2)cc1 [compound 2015]	500 to 5000 nM
Cn1cccc1-c1nc2cc(C(=O)NC3(C(=O)Nc4ccc(/C=C/C(=O)O)cc4)CCCC3)ccc2n1C1CCC1 [compound 2024]	500 to 5000 nM
O=C(O)/C=C/c1ccc(NC(=O)C2(NC(=O)c3ccc4c(c3)nc(-c3ccco3)n4C3CCC3)CCCC2)cc1 [compound 2025]	500 to 5000 nM
O=C(O)/C=C/c1ccc(NC(=O)C2(NC(=O)c3ccc4c(c3)nc(-c3ccccc3)n4C3CCC3)CCCC2)cc1 [compound 2026]	500 to 5000 nM
O=C(O)/C=C/c1ccc(NC(=O)C2(NC(=O)c3ccc4c(c3)nc(-c3cccs3)n4C3CCC3)CCCC2)cc1 [compound 2027]	500 to 5000 nM
O=C(O)/C=C/c1ccc(NC(=O)C2(NC(=O)c3ccc4c(c3)nc(-c3ccccn3)n4C3CCC3)CCCC2)cc1 [compound 2028]	500 to 5000 nM
O=C(O)/C=C/c1ccc(NC(=O)C2(NC(=O)c3ccc4c(c3)nc(-c3ccoc3)n4C3CCC3)CCCC2)cc1 [compound 2029]	500 to 5000 nM
O=C(O)/C=C/c1ccc(NC(=O)C2(NC(=O)c3ccc4c(c3)nc(-c3ccc[nH]3)n4C3CCC3)CCCC2)cc1 [compound 2030]	500 to 5000 nM
O=C(O)/C=C/c1ccc(NC(=O)C2(NC(=O)c3ccc4c(c3)nc(-c3cccc5c3OCO5)n4C3CCC3)CCCC2)cc1 [compound 2031]	500 to 5000 nM
CC1CCCC(C)C1n1c(-c2cccc3c2OCO3)nc2cc(C(=O)NC3(C(=O)Nc4ccc(C=CC(=O)O)cc4)CCCC3)ccc21 (stereo not drawn) [compound 2039]	500 to 5000 nM
CC1CCCCC1n1c(-c2cccs2)nc2cc(C(=O)NC3(C(=O)Nc4ccc(C=CC(=O)O)cc4)CCCC3)ccc21 (stereo not drawn) [compound 2043]	500 to 5000 nM
CC1CCCCC1n1c(-c2ccoc2)nc2cc(C(=O)NC3(C(=O)Nc4ccc(C=CC(=O)O)cc4)CCCC3)ccc21 (stereo not drawn) [compound 2045]	500 to 5000 nM
